According to the supplement of paper PMC12217912:
This is one part of the list. The full chains were built here from the parent and the listed change. Values near 0.05 are background.

B1: TEV protease; numbered along this chain (parent)
chain: MGESLFKGPRDYNPISSSICHLTNESDGHTTSLYGIGFGPFIITNKHLFRRNNGTLVVQSLHGVFKVKDTTTLQQHLVDGRDMIIIRMPKDFPPFPQKLKFREPQREERICLVTTNFQTKSMSSMVSDTSCTFPSGDGIFWKHWIQTKDGQCGSPLVSTRDGFIVGIHSASNFTNTNNYFTSVPKNFMELLTNQEAQQWVSGWRLNADSVLWGGHKVFMVKPEEPFQPVKEATQL

Variants of: B1
Experiment: raw area under fraction-flipped curve 0-4 h after induction (AUC4h, not background-subtracted), DNA-recorder readout of cleavage of the substrate (dimensionless); higher = more cleavage of the substrate by the protease variant
Settings: temperature: 34 °C; time window: 0-4 h after rhamnose induction
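Further: Bxb1 expression induced with 0.2% (w/v) L-rhamnose at OD600 near 0.5, cultures sampled hourly, flipped fraction per protease–substrate barcode pair counted by paired-end Illumina sequencing.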

Variant | area with substrate ENLEFQS | area with substrate ENLHFQS | area with substrate ENLKFQS | area with substrate ENLPFQS | area with substrate ENLQFQS | area with substrate ENLSFQS | area with substrate ENLFFQS | area with substrate ENLNFQS | area with substrate ENLVFQS | area with substrate ENLRFQS
V229T | 0.121 | 0.071 | 0.0877 | 0.0769 | 0.0556 | 0.0726 |  |  |  | 
F140T |  | 0.0551 | 0.0657 | 0.0527 |  |  | 0.0988 | 0.066 | 0.0685 | 
D69K | 0.0684 |  | 0.0734 | 0.0867 | 0.0792 | 0.0689 |  | 0.0658 |  | 0.0667
R160L | 0.069 |  | 0.0698 | 0.0579 |  | 0.0696 |  |  |  | 
N178H | 0.0497 | 0.077 | 0.0879 |  |  | 0.0835 | 0.0963 | 0.0689 |  | 0.087
T174Q |  |  |  | 0.0275 |  | 0.0671 | 0.0894 |  |  | 0.0758
Q234A |  |  | 0.112 | 0.0764 |  |  | 0.0935 |  |  | 
Q74Y |  | 0.0651 | 0.0725 | 0.0486 |  | 0.0709 |  | 0.0824 |  | 0.0603
V58N |  |  |  |  |  |  | 0.0583 | 0.0561 | 0.0449 | 0.0533
R87Y |  |  | 0.0732 |  | 0.0736 |  |  | 0.0499 |  | 
D82A |  | 0.0272 |  | 0.0773 |  |  | 0.0787 | 0.0684 |  | 0.0653
F101R | 0.0488 |  | 0.063 |  | 0.0406 |  | 0.0528 | 0.0632 |  | 0.0715
K90N |  | 0.0689 | 0.0735 | 0.0654 | 0.0561 | 0.0669 | 0.105 | 0.0541 |  | 0.0695
Q197M |  | 0.0696 |  |  |  | 0.0751 |  | 0.0723 |  | 
D79P |  | 0.0678 | 0.0433 | 0.0532 | 0.062 |  |  | 0.0509 | 0.0735 | 
P228L | 0.0562 |  | 0.0678 |  | 0.0465 | 0.0625 | 0.0544 | 0.0565 |  | 0.0805
K100C | 0.0608 | 0.0661 | 0.0788 | 0.0581 | 0.0706 | 0.0695 | 0.0875 | 0.0636 |  | 
I139C | 0.0709 |  |  |  |  | 0.0587 | 0.0722 | 0.0608 |  | 0.0875
K230Y |  | 0.0761 | 0.0758 | 0.0593 | 0.0589 | 0.0626 | 0.102 | 0.0635 | 0.0967 | 
G138S | 0.0634 |  | 0.0839 |  | 0.0623 |  |  |  |  | 0.063
F133H | 0.0724 | 0.0639 | 0.0866 | 0.0475 | 0.0797 |  |  | 0.0617 | 0.092 | 

Same assay, conditions: temperature: 34 °C; time window: 0-4 h after rhamnose induction

Variant | area with substrate ENLIFQS | area with substrate ENLGFQS | area with substrate ENLLFQS | area with substrate ENLWFQS | area with substrate ENLDFQS | area with substrate ENLMFQS | area with substrate ENLTFQS
R160L | 0.0776 |  |  |  |  |  | 
N178H | 0.0764 | 0.0573 |  |  |  |  | 
T174Q |  |  | 0.0486 | 0.0607 |  |  | 
Q234A |  |  |  |  | 0.0578 | 0.0746 | 
Q74Y |  |  |  |  |  | 0.0862 | 
V58N |  |  |  | 0.0335 |  |  | 
R87Y |  |  | 0.068 | 0.066 |  | 0.0559 | 
C131V |  |  |  | 0.0635 |  |  | 
D82A |  |  |  | 0.0619 |  |  | 
F101R | 0.0493 |  |  | 0.0513 |  |  | 
K90N | 0.0634 |  |  | 0.0659 |  | 0.0851 | 
Q197M |  |  | 0.129 | 0.0534 |  |  | 
P228L | 0.0499 |  |  |  | 0.0425 |  | 
K100C | 0.0844 |  | 0.076 |  |  | 0.0601 | 0.0676
I139C |  |  |  |  |  | 0.0961 | 
K230Y |  |  |  |  | 0.0772 | 0.0811 | 
F133H |  | 0.0495 | 0.0821 |  |  | 0.0706 | 
